In the supplement of paper PMC4967469:

How the values were obtained:
Assay in all cases: Viability of human cancer cell lines after 72 h of drug (GDSC screen)
PD-173074 = compound: CCN(CC)CCCCNc1ncc2cc(-c3cc(OC)cc(OC)c3)c(NC(=O)NC(C)(C)C)nc2n1 [PD-173074]; settings: top dose 2 µM; top dose inferred
Experimental: (§1)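 Human cancer cell lines in 384-well plates, medium with 10% serum, drug for 72 h over a 256-fold dose range (nine 2-fold or five 4-fold steps up to the top dose). Adherent lines were fixed and stained with the nucleic acid dye Syto60, suspension lines read with resazurin; signal relative to control wells, capped at 0 and 100%. One two-parameter sigmoid per drug and line, fitted in a mixed model over all curves with the slope shared within a line.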

SB590885 = compound: CN(C)CCOc1ccc(-c2nc(-c3ccncc3)c(-c3ccc4c(c3)CC/C4=N\O)[nH]2)cc1 [SB590885]; settings: top dose 5 µM; top dose inferred
Experimental: as §1

Lapatinib = compound: CS(=O)(=O)CCNCc1ccc(-c2ccc3ncnc(Nc4ccc(OCc5cccc(F)c5)c(Cl)c4)c3c2)o1 [Lapatinib]; settings: top dose 2 µM
Experimental: as §1

TGX221 = compound: Cc1cc(C(C)Nc2ccccc2)c2nc(N3CCOCC3)cc(=O)n2c1 [TGX221]; settings: top dose 10 µM
Experimental: as §1

Row | Cell Line | AUC (PD-173074) | pIC50 (PD-173074) | AUC (SB590885) | pIC50 (SB590885) | AUC (Lapatinib) | pIC50 (Lapatinib) | AUC (TGX221) | pIC50 (TGX221)
1 | ARH-77 (myeloma, suspension) | 0.968 | < 5.70 | 0.971 | < 5.30 | 0.983 | < 5.70 | 0.924 | < 5.00
2 | ATN-1 (T-cell lymphoblastic leukaemia, suspension) | 0.845 | 5.88 | 0.784 | 5.71 | 0.984 | < 5.70 | 0.981 | < 5.00
3 | BB30-HNC (head and neck, adherent) | 0.965 | < 5.70 | 0.921 | < 5.30 | 0.579 | 6.69 | 0.958 | < 5.00
4 | BB49-HNC (head and neck, adherent) | 0.948 | < 5.70 | 0.976 | < 5.30 | 0.967 | < 5.70 | 0.26 | 7.02
5 | BC-1 (B-cell lymphoma, suspension) | 0.987 | < 5.70 | 0.982 | < 5.30 | 0.967 | < 5.70 | 0.961 | < 5.00
6 | BE2-M17 (neuroblastoma, adherent) | 0.909 | < 5.70 | 0.967 | < 5.30 | 0.985 | < 5.70 | 0.981 | < 5.00
7 | BE-13 (lymphoblastic leukaemia, suspension) | 0.885 | 5.71 | 0.94 | < 5.30 | 0.971 | < 5.70 | 0.987 | < 5.00
8 | BL-41 (Burkitt lymphoma, suspension) | 0.994 | < 5.70 | 0.994 | < 5.30 | 0.979 | < 5.70 | 0.968 | < 5.00
9 | BV-173 (chronic myeloid leukaemia, suspension) | 0.905 | < 5.70 | 0.891 | 5.33 | 0.985 | < 5.70 | 0.981 | < 5.00
10 | Becker (glioma, adherent) | 0.979 | < 5.70 | 0.973 | < 5.30 | 0.948 | < 5.70 | 0.449 | 6.35
11 | C2BBe1 (large intestine, adherent) | 0.96 | < 5.70 | 0.812 | 5.50 | 0.97 | < 5.70 | 0.641 | 5.79
12 | CA46 (Burkitt lymphoma, suspension) | 0.975 | < 5.70 | 0.979 | < 5.30 | 0.954 | < 5.70 | 0.978 | < 5.00
13 | CAS-1 (glioma, adherent) | 0.922 | < 5.70 | 0.982 | < 5.30 | 0.971 | < 5.70 | 0.694 | 5.57
14 | CCRF-CEM (lymphoblastic leukaemia, suspension) | 0.957 | < 5.70 | 0.922 | < 5.30 | 0.987 | < 5.70 | 0.99 | < 5.00
15 | CESS (acute myeloid leukaemia, suspension) | 0.987 | < 5.70 | 0.99 | < 5.30 | 0.986 | < 5.70 | 0.985 | < 5.00
16 | CGTH-W-1 (thyroid, adherent) | 0.934 | < 5.70 | 0.985 | < 5.30 | 0.986 | < 5.70 | 0.981 | < 5.00
17 | CHP-126 (neuroblastoma, suspension) | 0.987 | < 5.70 | 0.987 | < 5.30 | 0.97 | < 5.70 | 0.987 | < 5.00
18 | CL-11 (large intestine, adherent) | 0.974 | < 5.70 | 0.973 | < 5.30 | 0.987 | < 5.70 | 0.985 | < 5.00
19 | CMK (acute myeloid leukaemia, suspension) | 0.97 | < 5.70 | 0.981 | < 5.30 | 0.991 | < 5.70 | 0.943 | < 5.00
20 | COLO-320-HSR (large intestine, suspension) | 0.991 | < 5.70 | 0.991 | < 5.30 | 0.989 | < 5.70 | 0.989 | < 5.00

Row | Cell Line | AUC (PD-173074) | pIC50 (PD-173074) | AUC (SB590885) | pIC50 (SB590885) | AUC (Lapatinib) | pIC50 (Lapatinib) | AUC (TGX221) | pIC50 (TGX221)
21 | COLO-668 (small cell lung carcinoma, adherent) | 0.984 | < 5.70 | 0.988 | < 5.30 | 0.901 | < 5.70 | 0.982 | < 5.00
22 | COLO-684 (endometrium, suspension) | 0.984 | < 5.70 | 0.985 | < 5.30 | 0.981 | < 5.70 | 0.978 | < 5.00
23 | COLO-800 (melanoma, adherent) | 0.963 | < 5.70 | 0.964 | < 5.30 | 0.987 | < 5.70 | 0.957 | < 5.00
24 | COLO-824 (breast, adherent) | 0.986 | < 5.70 | 0.986 | < 5.30 | 0.988 | < 5.70 | 0.987 | < 5.00
25 | COR-L88 (small cell lung carcinoma, adherent) | 0.98 | < 5.70 | 0.984 | < 5.30 | 0.978 | < 5.70 | 0.878 | < 5.00
26 | COR-L95 (small cell lung carcinoma, adherent) | 0.987 | < 5.70 | 0.987 | < 5.30 | 0.978 | < 5.70 | 0.979 | < 5.00
27 | COR-L279 (small cell lung carcinoma, suspension) | 0.991 | < 5.70 | 0.991 | < 5.30 | 0.991 | < 5.70 | 0.952 | < 5.00
28 | CP66-MEL (melanoma, adherent) | 0.986 | < 5.70 | 0.977 | < 5.30 | 0.986 | < 5.70 | 0.974 | < 5.00
29 | CPC-N (small cell lung carcinoma, suspension) | 0.978 | < 5.70 | 0.985 | < 5.30 | 0.982 | < 5.70 | 0.851 | 5.06
30 | CTB-1 (B-cell lymphoma, suspension) | 0.914 | < 5.70 | 0.977 | < 5.30 | 0.979 | < 5.70 | 0.941 | < 5.00
31 | CTV-1 (acute myeloid leukaemia, suspension) | 0.928 | < 5.70 | 0.958 | < 5.30 | 0.992 | < 5.70 | 0.986 | < 5.00
32 | CW-2 (large intestine, adherent) | 0.988 | < 5.70 | 0.989 | < 5.30 | 0.974 | < 5.70 | 0.988 | < 5.00
33 | D-247MG (glioma, adherent) | 0.97 | < 5.70 | 0.958 | < 5.30 | 0.929 | < 5.70 | 0.739 | 5.40
34 | D-263MG (glioma, adherent) | 0.705 | 6.27 | 0.983 | < 5.30 | 0.97 | < 5.70 | 0.879 | < 5.00
35 | D-283MED (medulloblastoma, adherent) | 0.915 | < 5.70 | 0.971 | < 5.30 | 0.98 | < 5.70 | 0.972 | < 5.00
36 | D-392MG (glioma, adherent) | 0.962 | < 5.70 | 0.974 | < 5.30 | 0.923 | < 5.70 | 0.83 | 5.02
37 | D-502MG (glioma, adherent) | 0.953 | < 5.70 | 0.907 | < 5.30 | 0.804 | 5.75 | 0.911 | < 5.00
38 | D-542MG (glioma, adherent) | 0.984 | < 5.70 | 0.984 | < 5.30 | 0.947 | < 5.70 | 0.615 | 5.86
39 | DB (B-cell lymphoma, suspension) | 0.899 | < 5.70 | 0.9 | < 5.30 | 0.979 | < 5.70 | 0.938 | < 5.00
40 | DEL (lymphoid neoplasm, suspension) | 0.994 | < 5.70 | 0.994 | < 5.30 | 0.992 | < 5.70 | 0.994 | < 5.00

Row | Cell Line | AUC (PD-173074) | pIC50 (PD-173074) | AUC (SB590885) | pIC50 (SB590885) | AUC (Lapatinib) | pIC50 (Lapatinib) | AUC (TGX221) | pIC50 (TGX221)
41 | DG-75 (Burkitt lymphoma, suspension) | 0.895 | < 5.70 | 0.979 | < 5.30 | 0.987 | < 5.70 | 0.986 | < 5.00
42 | DJM-1 (skin, adherent) | 0.969 | < 5.70 | 0.952 | < 5.30 | 0.918 | < 5.70 | 0.973 | < 5.00
43 | DMS-79 (small cell lung carcinoma, suspension) | 0.984 | < 5.70 | 0.986 | < 5.30 | 0.954 | < 5.70 | 0.965 | < 5.00
44 | DMS-114 (small cell lung carcinoma, adherent) | 0.791 | 5.98 | 0.985 | < 5.30 | 0.983 | < 5.70 | 0.967 | < 5.00
45 | DND-41 (T-cell leukaemia, suspension) | 0.983 | < 5.70 | 0.947 | < 5.30 | 0.982 | < 5.70 | 0.983 | < 5.00
46 | DOHH-2 (B-cell lymphoma, suspension) | 0.959 | < 5.70 | 0.959 | < 5.30 | 0.95 | < 5.70 | 0.966 | < 5.00
47 | DSH1 (bladder, adherent) | 0.983 | < 5.70 | 0.948 | < 5.30 | 0.454 | – | 0.989 | < 5.00
48 | Daudi (Burkitt lymphoma, suspension) | 0.99 | < 5.70 | 0.99 | < 5.30 | 0.987 | < 5.70 | 0.96 | < 5.00
49 | EB2 (Burkitt lymphoma, suspension) | 0.99 | < 5.70 | 0.99 | < 5.30 | 0.983 | < 5.70 | 0.961 | < 5.00
50 | EB-3 (Burkitt lymphoma, suspension) | 0.984 | < 5.70 | 0.984 | < 5.30 | 0.976 | < 5.70 | 0.942 | < 5.00
51 | EC-GI-10 (oesophagus, adherent) | 0.989 | < 5.70 | 0.988 | < 5.30 | 0.982 | < 5.70 | 0.989 | < 5.00
52 | EJM (lymphoid neoplasm, semi-adherent) | 0.992 | < 5.70 | 0.992 | < 5.30 | 0.988 | < 5.70 | 0.992 | < 5.00
53 | EKVX (lung adenocarcinoma, adherent) | 0.959 | < 5.70 | 0.969 | < 5.30 | 0.605 | 6.47 | 0.895 | < 5.00
54 | EM-2 (chronic myeloid leukaemia, suspension) | 0.974 | < 5.70 | 0.982 | < 5.30 | 0.981 | < 5.70 | 0.973 | < 5.00
55 | ES1 (Ewing sarcoma, adherent) | 0.986 | < 5.70 | 0.986 | < 5.30 | 0.985 | < 5.70 | 0.939 | < 5.00
56 | ES3 (Ewing sarcoma, adherent) | 0.979 | < 5.70 | 0.985 | < 5.30 | 0.983 | < 5.70 | 0.967 | < 5.00
57 | ES4 (Ewing sarcoma, adherent) | 0.942 | < 5.70 | 0.968 | < 5.30 | 0.878 | < 5.70 | 0.973 | < 5.00
58 | ES5 (Ewing sarcoma, adherent) | 0.877 | < 5.70 | 0.951 | < 5.30 | 0.983 | < 5.70 | 0.98 | < 5.00
59 | ES6 (Ewing sarcoma, adherent) | 0.98 | < 5.70 | 0.982 | < 5.30 | 0.921 | < 5.70 | 0.863 | < 5.00

pIC50: −log10 of the molar value. The IC50 comes from the fitted curve, where viability falls to half of the control; where the fit passes the top or lowest dose, that dose stands as a limit. AUC sums up the same curve from the lowest dose to the 256-fold higher top dose: 1 means no effect, lower means more sensitive. For part of these data: The top dose, if marked as inferred, is not printed in the source and was worked back from the curve model.
